# Results taken from the supplement of paper PMC11417369.
# The other results are listed elsewhere or left out.
# Test system: PfAP2-HC AP2 domain (GST-tagged)
# Assay: gcPBM binding intensity (ln(normalized median fluorescence intensity)); higher = stronger DNA binding
# In short: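 GST-fused DNA-binding domains of P. falciparum, expressed in E. coli, were applied at about 25 μg on average for 1 h to an Agilent 4 × 180k array of primer-extended double-stranded 36-bp intergenic genomic probes and negative controls. Binding intensity is the highest Masliner-normalised natural-log median intensity across replicate spots of either probe orientation, measured with Alexa488 anti-GST antibody and a 488 nm scan.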
row,Sequence,gcPBM binding intensity (ln)
1,TATTTAAATTTGTATAATGGACGAATTATATAGAAA [GTGCAC_negctrl_site650],9.45
2,AATAACCACGGACACACACACATATATATATATATA [CACACA_site5873],10.9
3,TTAAGAAACAAAGAAAGTACACAACATAATATAGAA [XGTACX_site477],9.92
4,TTAATAATAAAAAGGAGTACACTAATATACTATAAA [XGTACX_site2346],9.64
5,ATATAATATATATATAAACACACAAAAAAAATTATA [CACACA_site8434],9.97
6,AATAAAATCATCTATACACACAAAAAAAATAAGAAA [CACACA_site2101],9.9
7,CTGTAAAAAATATAAACACACATAGAAATATATAAA [CACACA_site340],9.91
8,CCTCATAAGTTCTTATGTACGTATTGTTCACCTTTA [XGTACX_site6640],9.72
9,TACAACCTTATAATTAGTACTTAGTTATGCTGTAAA [XGTACX_site6052],9.5
10,TTTAATTTTTTTTATAGTACATAAAAAATAAAAAAA [XGTACX_site5631],9.07
11,TTTATTTGTGCATATACACACTTAAATATGTTTATT [CACACA_site7772],9.95
12,ATTATAATACTTTGTATGCACTAATCAATTATTAAA,9.5
13,TTTGTTATGGTTTTCTCACACATATATATATATATA [CACACA_site4617],9.83
14,ACATAAAATTGGAGCAAACACACAAGGTTGAAATTA [CACACA_site505],10.1
15,CCGATATAATGGAAAACACACAAAAGATATTTATAT [CACACA_site7293],9.72
16,AGATCATAATATTATACACACATTATATATATGTAA [CACACA_site8419],9.75
17,TGGAAAGTTATTAACACACACATATAAATATTTATA [CACACA_site6173],10.1
18,GGAATAACCAGACACACACACACATATATATATATA [CACACA_site3541],10.9
19,TATATATAATATTATACACACATATCTGCATAATAT [CACACA_site4202],9.89

row,Sequence,gcPBM binding intensity (ln)
1,AAAAACCATTCGCACACACACATAATCTATAATATA [CACACA_site6782],11.1
2,AAGTACCATATAGGCACACATATATATATATATATA [CACACA_site3282],9.64
3,AAAAACGAAAAAAATACACACCTGAAAAGATATGTA [CACACA_site4644],9.9
4,GTATATATGTATATGTGTACATATATTTTATAATAT [XGTACX_site5703],9.73
5,GTTGTTATATAAAGGAGTACATAATAACACAAATAT [XGTACX_site615],9.76
6,TTTTCTTGTAGTATAACAAAATATAGTAATATATAT [GTGCAC_negctrl_site609],9.39
7,AAAAAAAAAAAAAAAACACACATTTATAGTATATAT [CACACA_site1194],9.74
8,GATTTATTTCATATCACACATTTTGGCTATTTTGTG [CACACA_site5793],9.73
9,ATGAAATATTTATTTGTGCACTTAATTTGTTGGAAA,9.41
10,AATCCTTCATATGTAGTGCATATTAACAAAATAAAA [GTGCAC_site9500],9.37
11,CCATTTGGTATTATATGTACATATAATTTTTTTTTT [XGTACX_site157],9.65
12,TCCAATTCTTTATTTTGTACACATTATGTGCATATG [XGTACX_site6290],10.1
13,TTATAAGATTTATGTACACACATATACACAGCTCTA [CACACA_site6481],9.95
14,AGTATTATATATATATGTACATAATATACATATATA [XGTACX_site8514],9.6
15,TCCTAATGCTACCACACACACAAAAACAAATAATAA [CACACA_site2610],10.2
16,GCTATAAATACAGACGCACACATATACATACAGATA [CACACA_site5778],10.3
17,TGTTATTAGAAAAATGCACACCAAAAAAAAAAAAAA [CACACA_site8802],9.58
18,ATATACATAATATATAATATAAATATATATATGGAA [CACACA_negctrl_site906],9.7
19,TGTCATTCCTCTTATTGTACAAAAATATTATAATAT [XGTACX_site1134],9.51

row,Sequence,gcPBM binding intensity (ln)
1,TATTAAAATATTTATACACACATAATTTTGATAAAT [CACACA_site4486],9.56
2,GTTATACGCATCAACACACACATACAACGTGGTGTA [CACACA_site1188],9.91
3,ATGGAACTTAAAAATTGTACACATAAAATGGAGAAG [XGTACX_site1823],9.76
4,ACATATTTATATTCTACACACTTATACTATAATACA [CACACA_site7204],9.84
5,TAATTAATTTACATTTTAATTTTATACAAAATTTAT [CACACA_negctrl_site830],9.52
6,TAGGAGAAAAAAAAAAGTACCCACAACTATTATACT [XGTACX_site8195],9.59
7,TGGTAATATCGATTCACACATATCAAAATAAAAAAA [CACACA_site4196],9.54
8,AACATATTAATGTACACACACCCACGCACAAACAAA [CACACA_site7320],10.4
9,TATATATATTAACTTGTGCGCAAAAAGATATAATTT [GTGCAC_site9672],9.77
10,AATATTTTGATGTGTACACATTAATACAGTTTTACA [CACACA_site5711],9.73
11,TAGGATATTGAATAATGTACTTTATATATAATATAA [XGTACX_site7828],9.49
12,ATATGTATGTATGTCTCAAAATTTCATATTATATTA [CACACA_negctrl_site784],9.59
13,AAGAAATAAAAAAAACGTACATATATACATACATAC [XGTACX_site3980],9.82
14,AATATATATATTAAATGTACATTACATAATTATATA [XGTACX_site3450],9.59
15,TAAATGAAAATATGTACACACTTGAAAACTTTTATG [CACACA_site7388],9.75
16,TGCAACAAAATAAACACACACACACTAGCACAAAAA [CACACA_site5805],10.5
17,TTTTTTTTTTTAGACACATGCATTTTTATAATTTTC [TGCATGCA_site843],9.72
18,TGTATAACCTGTGTTACACACATTAAAATTTATATA [CACACA_site4449],9.7
19,ATAAATGTGTTTATTTAACACACAAAAGAAAAAATA [CACACA_site8589],10.1
